The target of one test is HA-tagged USF-1 (UniProt P22415). The test can be described thus: co-IP; HEK293 cells co-transfected with Flag-JMJD1C and HA-USF-1; IP with HA antibody, immunoblot with Flag antibody.
Test [1] addresses USF-1 overexpressed in 293FT cells (UniProt P22415). The experiment in a line: co-IP; co-IP of JMJD1C WT and T505 mutants with USF-1, immunoblot; cells and tags not told.
Test [2] deals with Usf-1, endogenous in mouse liver (mouse (endogenous in liver)) (UniProt Q61069). The test can be described thus: co-IP; endogenous proteins, livers of fasted mice; IP of Jmjd1c and blot of Usf-1, and IP of Usf-1 and blot of Jmjd1c.
Test [3] has the same target. The experiment in a line: co-IP; endogenous proteins, livers of fed (refed) mice; IP of Jmjd1c and blot of Usf-1, and IP of Usf-1 and blot of Jmjd1c.
In a further test the target is GST-USF-1 (UniProt P22415). The experiment in a line: pull-down; bacterially expressed GST-USF-1 fusion proteins on glutathione-agarose beads incubated with 35S-labeled in vitro transcribed and translated protein; SDS-PAGE, autoradiography; only the target purified.

By UniProt entry, the sequences of proteins in these tests, tags left out. Where a name states a change or a piece, a line headed by the entry shows the natural chain unless it says otherwise. Chains listed by the source or under a name are the forms on record and can include a tag or linker.
UniProt P22415: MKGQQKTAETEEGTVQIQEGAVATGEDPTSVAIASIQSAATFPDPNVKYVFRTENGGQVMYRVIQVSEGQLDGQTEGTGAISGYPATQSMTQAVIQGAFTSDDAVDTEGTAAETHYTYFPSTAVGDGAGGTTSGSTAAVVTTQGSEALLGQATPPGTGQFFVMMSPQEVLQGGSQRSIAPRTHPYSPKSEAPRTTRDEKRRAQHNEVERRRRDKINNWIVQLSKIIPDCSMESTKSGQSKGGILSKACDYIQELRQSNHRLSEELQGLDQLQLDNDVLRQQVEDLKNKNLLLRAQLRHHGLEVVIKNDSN
UniProt Q61069: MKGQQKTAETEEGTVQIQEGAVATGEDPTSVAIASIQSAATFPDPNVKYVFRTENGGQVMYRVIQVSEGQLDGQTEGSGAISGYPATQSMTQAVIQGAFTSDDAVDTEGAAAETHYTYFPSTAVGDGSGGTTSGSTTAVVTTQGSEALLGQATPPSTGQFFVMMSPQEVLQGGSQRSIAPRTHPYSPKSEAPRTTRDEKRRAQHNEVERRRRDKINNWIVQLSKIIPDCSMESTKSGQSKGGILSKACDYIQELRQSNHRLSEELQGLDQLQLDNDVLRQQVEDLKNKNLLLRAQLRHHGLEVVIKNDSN
UniProt Q15652: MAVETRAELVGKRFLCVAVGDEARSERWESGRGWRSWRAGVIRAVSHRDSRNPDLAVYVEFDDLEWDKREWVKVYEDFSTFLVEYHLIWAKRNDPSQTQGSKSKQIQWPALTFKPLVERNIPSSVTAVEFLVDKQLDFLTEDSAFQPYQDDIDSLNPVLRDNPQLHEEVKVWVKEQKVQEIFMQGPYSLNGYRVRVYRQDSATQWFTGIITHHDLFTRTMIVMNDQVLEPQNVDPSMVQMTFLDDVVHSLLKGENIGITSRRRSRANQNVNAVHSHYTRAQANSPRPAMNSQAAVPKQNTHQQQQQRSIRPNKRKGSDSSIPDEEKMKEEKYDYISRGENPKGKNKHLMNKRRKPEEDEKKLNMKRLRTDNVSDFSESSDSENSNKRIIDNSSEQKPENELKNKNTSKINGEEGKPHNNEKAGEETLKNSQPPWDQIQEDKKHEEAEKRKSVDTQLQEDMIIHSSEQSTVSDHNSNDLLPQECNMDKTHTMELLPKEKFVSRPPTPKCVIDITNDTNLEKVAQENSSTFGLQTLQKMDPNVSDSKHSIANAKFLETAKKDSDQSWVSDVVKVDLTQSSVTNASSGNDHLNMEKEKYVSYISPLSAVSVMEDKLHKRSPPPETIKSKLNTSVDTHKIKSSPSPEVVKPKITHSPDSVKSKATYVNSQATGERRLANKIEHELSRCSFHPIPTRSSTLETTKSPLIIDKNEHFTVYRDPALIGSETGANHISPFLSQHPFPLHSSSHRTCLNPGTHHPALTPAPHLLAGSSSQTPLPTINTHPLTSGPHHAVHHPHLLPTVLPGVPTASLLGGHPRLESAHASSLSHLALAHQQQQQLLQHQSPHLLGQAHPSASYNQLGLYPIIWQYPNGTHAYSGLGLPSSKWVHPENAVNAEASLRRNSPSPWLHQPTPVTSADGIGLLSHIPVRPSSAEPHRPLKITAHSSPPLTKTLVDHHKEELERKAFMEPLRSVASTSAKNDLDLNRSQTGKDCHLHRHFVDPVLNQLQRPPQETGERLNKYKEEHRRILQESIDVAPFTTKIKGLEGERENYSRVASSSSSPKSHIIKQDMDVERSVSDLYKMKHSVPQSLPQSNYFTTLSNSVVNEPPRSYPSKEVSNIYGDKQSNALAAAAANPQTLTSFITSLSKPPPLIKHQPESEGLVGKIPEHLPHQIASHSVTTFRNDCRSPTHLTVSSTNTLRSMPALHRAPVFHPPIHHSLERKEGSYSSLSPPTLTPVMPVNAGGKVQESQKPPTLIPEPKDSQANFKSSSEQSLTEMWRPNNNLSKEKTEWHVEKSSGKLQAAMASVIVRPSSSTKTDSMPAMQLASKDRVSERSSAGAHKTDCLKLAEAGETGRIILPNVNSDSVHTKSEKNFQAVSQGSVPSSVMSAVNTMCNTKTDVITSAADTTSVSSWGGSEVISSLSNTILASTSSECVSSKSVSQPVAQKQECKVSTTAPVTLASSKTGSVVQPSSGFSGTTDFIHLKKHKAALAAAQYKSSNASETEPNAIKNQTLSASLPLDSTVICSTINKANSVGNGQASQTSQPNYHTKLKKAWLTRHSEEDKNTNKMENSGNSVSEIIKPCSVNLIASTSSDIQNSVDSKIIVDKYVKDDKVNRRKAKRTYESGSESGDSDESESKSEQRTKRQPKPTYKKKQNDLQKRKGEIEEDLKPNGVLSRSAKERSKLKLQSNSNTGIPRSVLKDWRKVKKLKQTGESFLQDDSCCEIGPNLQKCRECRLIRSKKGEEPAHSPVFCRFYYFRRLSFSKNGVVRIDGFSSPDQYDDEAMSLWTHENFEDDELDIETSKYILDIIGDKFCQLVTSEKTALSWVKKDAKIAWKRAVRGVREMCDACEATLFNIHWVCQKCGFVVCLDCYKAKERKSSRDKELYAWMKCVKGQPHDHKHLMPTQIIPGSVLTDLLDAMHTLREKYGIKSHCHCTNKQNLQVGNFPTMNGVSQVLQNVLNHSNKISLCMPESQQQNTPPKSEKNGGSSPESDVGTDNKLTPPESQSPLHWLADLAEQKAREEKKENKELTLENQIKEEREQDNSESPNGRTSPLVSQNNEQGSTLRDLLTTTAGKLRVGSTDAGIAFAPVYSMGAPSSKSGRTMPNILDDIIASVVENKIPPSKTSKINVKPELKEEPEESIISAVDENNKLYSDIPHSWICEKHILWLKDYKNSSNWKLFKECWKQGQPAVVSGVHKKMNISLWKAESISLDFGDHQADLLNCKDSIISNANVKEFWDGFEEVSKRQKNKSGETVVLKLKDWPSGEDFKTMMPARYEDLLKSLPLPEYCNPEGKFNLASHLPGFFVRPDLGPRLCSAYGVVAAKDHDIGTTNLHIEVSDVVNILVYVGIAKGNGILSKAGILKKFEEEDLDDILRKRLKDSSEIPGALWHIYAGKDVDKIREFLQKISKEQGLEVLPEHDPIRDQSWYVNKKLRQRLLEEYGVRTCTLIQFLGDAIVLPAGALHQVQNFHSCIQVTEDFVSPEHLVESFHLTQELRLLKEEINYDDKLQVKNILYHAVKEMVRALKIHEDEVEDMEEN
Jmjd1c, endogenous in mouse liver (Q69ZK6, form named): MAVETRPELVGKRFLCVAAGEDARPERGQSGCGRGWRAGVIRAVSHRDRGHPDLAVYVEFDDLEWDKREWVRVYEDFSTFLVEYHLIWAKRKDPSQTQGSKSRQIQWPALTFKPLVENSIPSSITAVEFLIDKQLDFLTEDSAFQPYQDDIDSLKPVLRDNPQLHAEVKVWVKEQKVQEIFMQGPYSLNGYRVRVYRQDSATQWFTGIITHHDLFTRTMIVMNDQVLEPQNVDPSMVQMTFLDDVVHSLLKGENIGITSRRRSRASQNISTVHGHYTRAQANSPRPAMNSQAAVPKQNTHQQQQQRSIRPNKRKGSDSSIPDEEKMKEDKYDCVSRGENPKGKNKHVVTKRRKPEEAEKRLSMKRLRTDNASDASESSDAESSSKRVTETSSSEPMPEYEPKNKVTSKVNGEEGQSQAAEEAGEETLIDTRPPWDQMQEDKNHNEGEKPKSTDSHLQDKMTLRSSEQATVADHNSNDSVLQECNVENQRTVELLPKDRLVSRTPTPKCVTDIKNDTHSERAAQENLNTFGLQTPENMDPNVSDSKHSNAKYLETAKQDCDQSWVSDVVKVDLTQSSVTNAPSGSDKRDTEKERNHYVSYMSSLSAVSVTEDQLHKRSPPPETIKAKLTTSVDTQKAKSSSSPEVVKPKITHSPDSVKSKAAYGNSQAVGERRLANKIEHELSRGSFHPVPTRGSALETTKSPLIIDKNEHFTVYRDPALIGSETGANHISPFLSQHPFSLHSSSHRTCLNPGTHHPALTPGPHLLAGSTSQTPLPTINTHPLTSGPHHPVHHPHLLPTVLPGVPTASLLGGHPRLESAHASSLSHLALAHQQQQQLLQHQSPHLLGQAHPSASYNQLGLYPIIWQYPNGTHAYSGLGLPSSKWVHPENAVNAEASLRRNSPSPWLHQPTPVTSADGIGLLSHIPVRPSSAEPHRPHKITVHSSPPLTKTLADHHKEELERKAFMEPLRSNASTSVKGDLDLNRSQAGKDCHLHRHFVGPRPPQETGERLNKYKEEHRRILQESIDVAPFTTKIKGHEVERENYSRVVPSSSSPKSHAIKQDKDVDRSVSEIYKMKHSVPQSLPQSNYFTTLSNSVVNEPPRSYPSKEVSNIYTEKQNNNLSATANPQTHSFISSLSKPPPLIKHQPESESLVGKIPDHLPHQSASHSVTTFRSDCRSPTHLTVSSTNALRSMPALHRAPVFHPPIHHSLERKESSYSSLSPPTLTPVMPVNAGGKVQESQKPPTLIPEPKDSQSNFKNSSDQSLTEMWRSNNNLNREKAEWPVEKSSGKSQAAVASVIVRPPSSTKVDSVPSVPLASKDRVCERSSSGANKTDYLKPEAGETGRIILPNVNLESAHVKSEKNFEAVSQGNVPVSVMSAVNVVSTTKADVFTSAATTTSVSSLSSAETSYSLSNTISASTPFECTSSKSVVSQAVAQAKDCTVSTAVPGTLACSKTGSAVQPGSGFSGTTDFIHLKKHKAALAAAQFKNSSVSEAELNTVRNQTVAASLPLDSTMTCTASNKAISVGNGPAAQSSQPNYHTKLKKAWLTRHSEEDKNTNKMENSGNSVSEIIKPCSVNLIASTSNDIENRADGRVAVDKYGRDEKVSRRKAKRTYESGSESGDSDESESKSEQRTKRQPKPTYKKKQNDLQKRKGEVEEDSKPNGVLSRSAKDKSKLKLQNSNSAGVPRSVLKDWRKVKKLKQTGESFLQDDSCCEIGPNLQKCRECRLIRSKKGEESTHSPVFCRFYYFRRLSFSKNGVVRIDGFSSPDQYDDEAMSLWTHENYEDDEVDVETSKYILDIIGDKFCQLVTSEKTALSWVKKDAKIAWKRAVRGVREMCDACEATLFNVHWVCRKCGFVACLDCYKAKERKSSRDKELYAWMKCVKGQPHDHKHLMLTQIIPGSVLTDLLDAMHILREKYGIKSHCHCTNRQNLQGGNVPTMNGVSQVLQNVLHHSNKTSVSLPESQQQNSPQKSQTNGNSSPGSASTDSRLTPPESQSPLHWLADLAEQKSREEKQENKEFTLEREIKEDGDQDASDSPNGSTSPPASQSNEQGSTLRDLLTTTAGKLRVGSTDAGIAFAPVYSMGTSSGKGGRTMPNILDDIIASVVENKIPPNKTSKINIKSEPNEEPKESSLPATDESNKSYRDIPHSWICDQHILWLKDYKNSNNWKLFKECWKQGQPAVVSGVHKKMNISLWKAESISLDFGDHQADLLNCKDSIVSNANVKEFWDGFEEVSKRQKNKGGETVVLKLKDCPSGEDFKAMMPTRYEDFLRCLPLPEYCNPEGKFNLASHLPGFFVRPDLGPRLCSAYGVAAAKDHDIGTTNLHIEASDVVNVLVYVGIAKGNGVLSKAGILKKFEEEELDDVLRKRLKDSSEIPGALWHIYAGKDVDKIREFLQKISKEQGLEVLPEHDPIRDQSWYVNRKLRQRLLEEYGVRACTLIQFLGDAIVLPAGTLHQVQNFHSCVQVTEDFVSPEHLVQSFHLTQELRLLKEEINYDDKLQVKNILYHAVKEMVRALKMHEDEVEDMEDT

Results are given in words; binding and its absence hold for the method and conditions named. In cells and extracts the contact can be indirect. Some results given as binding are weak or reduced against the parent protein; the word gives no strength.

With “Flag-tagged JMJD1C (from UniProt Q15652 1-2540)”, the binding result in the test with HA-tagged USF-1 is given as “binds”.

Regarding “JMJD1C T505A mutant (from UniProt Q15652 1-2540)”, the binding result in test [1] was “no binding”.

For “JMJD1C T505D mutant (from UniProt Q15652 1-2540)”, the binding entry in test [1] was “binds”.

Consider “Jmjd1c, endogenous in mouse liver (from UniProt Q69ZK6 1-2531)”, for which the figures for the binding entry in test [2] and in test [3] were “no binding (condition: livers of fasted mice)” and “binds”, respectively.

Turning to WT JMJD1C (from UniProt Q15652 1-2540), the binding entry in test [1] is “binds”.

Regarding “in vitro translated JMJD1C (from UniProt Q15652 1-2540)”, the binding entry with GST-USF-1 is “binds”.

The values are drawn from paper PMC7005700.
